# Data: paper PMC4336329 (PLoS ONE, 2015)
# About 2,200 (0.71%) of roughly 310,000 compounds showed an effect of 50% or more. Effects have a minus sign here. The list shows a part of the results.
# Target: human ether-à-go-go-related gene (hERG) potassium channel (human, UniProt Q12809)
# Assay: primary screen, population patch clamp on CHO cells stably expressing hERG
# Sequence of human ether-à-go-go-related gene (hERG) potassium channel (Q12809 whole entry, looked up): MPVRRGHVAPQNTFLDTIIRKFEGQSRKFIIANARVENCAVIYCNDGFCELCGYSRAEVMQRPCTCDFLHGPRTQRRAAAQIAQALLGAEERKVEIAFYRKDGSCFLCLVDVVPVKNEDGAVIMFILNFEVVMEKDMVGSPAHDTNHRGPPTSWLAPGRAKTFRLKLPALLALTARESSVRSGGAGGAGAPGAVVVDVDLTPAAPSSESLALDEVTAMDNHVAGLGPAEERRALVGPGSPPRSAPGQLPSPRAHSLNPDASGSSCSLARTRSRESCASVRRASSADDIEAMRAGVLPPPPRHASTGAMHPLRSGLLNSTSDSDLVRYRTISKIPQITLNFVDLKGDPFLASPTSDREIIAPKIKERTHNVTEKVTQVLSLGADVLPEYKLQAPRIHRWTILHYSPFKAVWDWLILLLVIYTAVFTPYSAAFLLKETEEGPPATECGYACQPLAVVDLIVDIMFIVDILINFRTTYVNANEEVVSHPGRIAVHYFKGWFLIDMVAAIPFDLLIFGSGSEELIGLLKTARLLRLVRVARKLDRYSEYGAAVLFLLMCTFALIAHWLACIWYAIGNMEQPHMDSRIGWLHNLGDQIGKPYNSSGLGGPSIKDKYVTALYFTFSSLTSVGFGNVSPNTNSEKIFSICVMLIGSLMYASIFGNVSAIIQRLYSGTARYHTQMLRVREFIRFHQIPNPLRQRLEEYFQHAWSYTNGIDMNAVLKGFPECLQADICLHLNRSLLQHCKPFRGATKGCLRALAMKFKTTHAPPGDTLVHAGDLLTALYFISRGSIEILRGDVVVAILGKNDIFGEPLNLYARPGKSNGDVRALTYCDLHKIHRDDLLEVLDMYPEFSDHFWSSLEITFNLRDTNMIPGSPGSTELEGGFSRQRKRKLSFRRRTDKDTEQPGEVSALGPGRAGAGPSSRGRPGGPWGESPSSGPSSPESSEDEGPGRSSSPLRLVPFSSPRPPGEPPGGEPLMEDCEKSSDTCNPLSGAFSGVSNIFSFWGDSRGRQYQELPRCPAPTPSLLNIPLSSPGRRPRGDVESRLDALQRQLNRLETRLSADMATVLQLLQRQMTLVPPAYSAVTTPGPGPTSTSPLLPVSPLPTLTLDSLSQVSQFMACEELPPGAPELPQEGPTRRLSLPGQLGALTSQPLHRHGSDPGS
row,Compound,"hERG current change (%, negative = inhibition) at 1uM [%]"
1,Cc1csc(NC(=O)C2CC(=O)N(c3ccc4c(c3)OCCO4)C2)n1 (centres unmarked),2.23
2,COc1cccc(NC(=O)Nc2nccc(C)n2)c1,12.9
3,CCOC(=O)C1=CN(c2cccc(F)c2)C=C(C(=O)OCC)C1c1cc(OC)c(O)c([N+](=O)[O-])c1,3.56
4,CC1=C(C(=O)OC(C)C)C(c2cccs2)C(C(=O)OC(C)C)=C(C)N1,12.4
5,COCCN(Cc1ccccc1)C(=S)Nc1ccc(OC(F)F)cc1,-17.4
6,O=C(CN1CCCC1)Nc1cc(C(F)(F)F)cc(C(F)(F)F)c1,7.38
7,O=C(Cc1ccccc1)N1CCN=C1SCc1ccc([N+](=O)[O-])cc1,2.82
8,O=C(NNc1ccccc1)Nc1ccccc1F,15.9
9,CCOC(=O)N1CCN(C(c2ccc(C(C)C)cc2)c2sc3nc(C)nn3c2O)CC1 (centres unmarked),8.83
10,CCCCSc1nnc([C@@H]2CCCN2C(=O)OC(C)(C)C)o1,-3.58
11,CCCCC(=O)OCC(=O)Nc1ccc(C)c(F)c1,9.16
12,CCC(=O)Nc1ccc2c(c1)nc(CN1CCN(C(C)=O)CC1)n2C,3.95
13,CCn1cc(C(=O)N(CCCN2CCOCC2)Cc2ccco2)c(=O)c2ccc(C)nc21,6.18
14,COc1ccc(N2CCOCC2)c(NC(=O)COc2cccc(C)c2)c1,8.49
15,Cc1ccc(/C=C2\C(=O)NC(=O)N(CCc3ccc(F)cc3)C2=O)o1,13.1
16,CC(C)C(=O)Nc1ccc2c(c1)oc1ccccc12,11.8
17,Cc1cc(OCC(=O)NCCc2ccc(Cl)cc2)c2c(C)cc(=O)oc2c1,11.6
18,O=C(Nc1ccccc1)Nc1ccccc1C(=O)NCc1ccccc1,10.8
19,CC1(c2nnc(-c3cccc(Cl)c3)o2)CC(c2cccc([N+](=O)[O-])c2)=NO1 (centres unmarked),16.3
20,OCCN(Cc1ccccc1)Cc1ccccc1Cl,-1.03
21,C=Cc1ccc(N=Cc2c(O)ccc3ccccc23)cc1,9.48
22,COP(=O)(OC)c1nc(-c2ccccc2)oc1N1CCOCC1,10
23,CC1=CCCC(C)(C)C1/C=C/C(C)=N/NC(=O)c1ccncc1 (centres unmarked),2.91

row,Compound,"hERG current change (%, negative = inhibition) at 1uM [%]"
1,COc1ccc(NC(=O)NNC(=O)c2ccc(-c3ccccc3)cc2)cc1,3.44
2,NCCNC(=O)Cn1c(=O)c2c3c(sc2n(Cc2ccccc2)c1=O)CCCC3,9.14
3,COC(=O)c1sc(N)c(C(=O)OC)c1COC(=O)CNS(=O)(=O)c1cccc(C#N)c1,2.19
4,Cc1nc2ccccc2c2oc(C(=O)N3CC(C)CC(C)C3)cc12 (centres unmarked),11.3
5,CCCCN(C(=O)CSc1nncn1-c1ccccc1OC)c1c(N)n(Cc2ccccc2)c(=O)[nH]c1=O,18.6
6,O=C(COc1ccccc1)Nc1ccc(NC(=O)c2ccco2)cc1,4.08
7,CCOC(=O)Cn1c(-c2ccccc2)cc(SC)c(C#N)c1=O,20.3
8,COc1ccc(-n2c(=S)[nH]c3cc(C(=O)NCCCN4CCOCC4)ccc3c2=O)cc1,17
9,COC(=O)/C=C1\S/C(=N/N=C/c2ccco2)NC1=O,4.39
10,COc1cc(NC(=S)Nc2ccc(S(=O)(=O)N3CCOCC3)cc2)cc(OC)c1OC,13.2
11,COc1ccccc1CNC(=O)CCc1ccccc1,8.64
12,CCCCn1c(=O)n(CC(=O)NCc2ccc(C)cc2)c(=O)c2c1nc(CO)n2CCC,8.31
13,COc1cccc(N2CC(NC(=O)c3cccc4ccccc34)CC2=O)c1 (centres unmarked),7.17
14,CCOc1ccc(NC(=O)COC(=O)c2c(OC)cccc2OC)cc1,-0.332
15,Cn1c(=O)c2c(nc(NCc3ccco3)n2CC(O)CO)n(C)c1=O (centres unmarked),6.33
16,O=C(O)CCC(=O)NC1CCCCCCC1,7.73
17,c1ccc(CSc2ncn[nH]2)nc1,16
18,CCCOc1ccc(NC(N)=O)cc1OCCC,4.53
19,O=C(Cc1ccccc1)Nc1cccc(S(=O)(=O)N2CCCCCC2)c1,1.36
20,Cc1ccnc(NC(=O)CCC(=O)N(Cc2ccco2)C(C(=O)NC(C)C)c2ccc(F)cc2)c1 (centres unmarked),8.98
21,CCn1c(SCC(=O)c2ccccc2)nc2sc3c(c2c1=O)CCN(C)C3,10.1
22,Cc1nn2c(=O)cc(COC(=O)c3c(F)cccc3Cl)nc2s1,13.1
23,Cn1c(CCNC(=O)c2cccs2)n[nH]c1=S,17.6

row,Compound,"hERG current change (%, negative = inhibition) at 1uM [%]"
1,CC1CCC(C(=O)NNC(=O)c2cc(-c3ccco3)[nH]n2)CC1 (centres unmarked),6.83
2,CN(C)CCOc1ccc(C(C)(C)c2ccccc2)cc1.O=C(O)C(=O)O,11.4
3,COc1ccc(/C=C(/NC(=O)c2ccccc2)C(=O)NCCN2CCOCC2)cc1OC,14.3
4,O=c1c([N+](=O)[O-])cc(C(F)(F)F)cn1Cc1cccc(Cl)c1,11.2
5,CCCn1c(-c2cccs2)nc2nc3ccccc3nc21,4.44
6,O=[N+]([O-])c1cnccc1NC1CCCCC1,13.8
7,O=C(NCc1csc2ccc(Cl)cc12)Nc1cccc2ccccc12,14.5
8,Cc1cccc(C2CC3(CC(C)(C)NC(=S)N3)Oc3cc(O)ccc32)c1 (centres unmarked),4.46
9,COc1ccc([C@H]2CC(=O)C=C(c3ccc4c(c3)OCO4)C2)cc1OC,3.65
10,CN1CCCN(C(=O)COc2ccccc2)CC1,10
11,CC(C)(C)N1C(=O)[C@H]2[C@@H](c3ccc(Br)cc3)N3C(=O)N(c4cccc(F)c4)C(=O)[C@@]3(Cc3ccccc3)[C@H]2C1=O,7.07
12,CCCn1c(C)nc2cc(Cl)c(N3CCN(c4nc(-c5ccc(C)cc5)cs4)CC3)cc21,10.7
13,CCOc1ccc(NC(=O)c2nn(C)cc2Br)cc1,2.04
14,C=CCNC(=S)N1CCC(C(N)=O)CC1,7.33
15,CN(c1ccc(C(=O)NCCc2ccccc2)cc1)S(C)(=O)=O,12.6
16,CC(C)[C@H](NC(=O)N1CCn2c1nc1ccccc12)C(=O)NCCc1ccccc1,11.8
17,Cc1ccc(-c2nnc(-c3cccnc3)o2)cc1,2.23
18,O=C(Cn1c(=S)nc2ccccn21)N1CCc2ccccc2C1,0.947
19,Cc1ccc(OCc2ccc(C(=O)NN)o2)c([N+](=O)[O-])c1,6.54
20,N#Cc1nc(-c2ccco2)oc1NCc1ccco1,11.3
21,COC(OC)C12c3ccccc3C(c3ccccc31)C1C(=O)N(c3cccnc3)C(=O)C12 (centres unmarked),13
22,COc1ccc(CN2C(=O)c3cccnc3C2=O)cc1S(=O)(=O)N1CCOc2ccc(C)cc21,-2.24
23,CC1CCN(CCCNC(=O)CN2C(=O)CSc3ccc(S(=O)(=O)N4CCOCC4)cc32)CC1,10.4

row,Compound,"hERG current change (%, negative = inhibition) at 1uM [%]"
1,Cc1ccc(S(=O)(=O)N2CCCC(C)C2)cc1 (centres unmarked),10.6
2,c1ccc(CCNc2nnnn2-c2ccccc2)cc1,15.3
3,CCc1ccc(CNC(=O)c2ccc(NC(=O)C3=CSCCO3)cc2)cc1,4.01
4,CC1=NN(c2nc(-c3ccc(F)cc3)cs2)C(=O)C1,1.67
5,Cc1ccc(-c2nc(CN3CCCC(C(=O)N4CCOCC4)C3)c(C)o2)cc1 (centres unmarked),-9.44
6,COC(=O)c1ccc(S(=O)(=O)N2CCCN(Cc3cccc(Br)c3F)CC2)n1C,4.22
7,Cc1cccc(C(=O)N2CC3(C)CC2CC(C)(C)C3)c1 (centres unmarked),8.1
8,CCOc1ccc(OCCSc2nc3ccccc3n2CC(=O)O)cc1,9.14
9,Cc1ccc(C(=O)OCC(=O)NC(=O)c2cccn2C)cc1,6.46
10,O=C(COC(=O)c1cc(S(=O)(=O)N2CCOCC2)ccc1F)c1ccc[nH]1,1.11
11,Cc1ccc(NC(=O)COc2ccccc2[N+](=O)[O-])nc1,12.4
12,CC(C)[C@@H]1CC[C@@H](C)C[C@H]1OC(=O)C[n+]1cc(-c2ccc(Cl)cc2)n2c1CCCCC2.[Cl-],3.7
13,Cc1ccc(N(CC(=O)NC2CCCCC2)S(=O)(=O)c2c(C)noc2C)cc1,9.08
14,COc1ccc(NC(=O)Nc2cccc(C(F)(F)F)c2)cn1,1.17
15,CCCS(=O)(=O)N1CCCC(C(=O)NCc2ccco2)C1 (centres unmarked),12.6
16,O=C(Nc1ccc(OCc2ccccc2)cc1)c1ccccc1,12.5
17,CCCCC1(C)OC(=O)C(=Cc2ccc(-c3ccc(Cl)c(C(=O)O)c3)o2)C(=O)O1 (centres unmarked),2
18,CNS(=O)(=O)c1cc(C(=O)OCC(=O)NC2CCCc3ccccc32)ccc1Cl (centres unmarked),4.51
19,Cc1ccc(-c2nnn(CC(=O)N3CCN(c4ccccc4)CC3)n2)o1,8.24
20,NS(=O)(=O)c1ccc(NC(=O)CN2CCN(S(=O)(=O)c3ccc(F)cc3)CC2)cc1,7.08
